Results taken from paper PMC7048933.
These are yes or no findings as the source states them, for the method shown. Binding seen in cells or lysates may run through a third protein. Some entries that bind do so weakly or less than the wild type. For some assays here: Where a sequence is shown, tags or fusion partners need not be part of it.

By UniProt entry, the sequences of proteins in these tests, tags left out.
UniProt Q92830: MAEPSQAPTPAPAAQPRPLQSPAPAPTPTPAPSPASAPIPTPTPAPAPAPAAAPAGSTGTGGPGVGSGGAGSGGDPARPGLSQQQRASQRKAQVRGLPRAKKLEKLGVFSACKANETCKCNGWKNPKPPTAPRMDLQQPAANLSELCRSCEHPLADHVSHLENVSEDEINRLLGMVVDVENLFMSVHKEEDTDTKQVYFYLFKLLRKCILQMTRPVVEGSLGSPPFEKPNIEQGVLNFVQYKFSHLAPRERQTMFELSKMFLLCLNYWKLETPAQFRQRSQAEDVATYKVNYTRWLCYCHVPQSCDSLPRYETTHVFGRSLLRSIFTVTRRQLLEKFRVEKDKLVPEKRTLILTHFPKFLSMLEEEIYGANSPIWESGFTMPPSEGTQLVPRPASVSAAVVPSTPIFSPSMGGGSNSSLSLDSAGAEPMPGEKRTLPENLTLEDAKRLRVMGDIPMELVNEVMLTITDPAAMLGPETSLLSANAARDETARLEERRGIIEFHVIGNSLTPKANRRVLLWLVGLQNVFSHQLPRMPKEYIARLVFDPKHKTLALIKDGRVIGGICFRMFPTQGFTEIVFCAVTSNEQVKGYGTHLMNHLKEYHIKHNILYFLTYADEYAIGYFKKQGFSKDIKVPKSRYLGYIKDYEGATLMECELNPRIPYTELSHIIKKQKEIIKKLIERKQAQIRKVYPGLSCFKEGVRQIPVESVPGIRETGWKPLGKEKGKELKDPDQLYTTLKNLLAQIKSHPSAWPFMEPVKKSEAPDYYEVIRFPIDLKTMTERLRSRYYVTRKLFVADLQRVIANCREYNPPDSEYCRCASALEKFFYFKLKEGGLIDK
UniProt O15379: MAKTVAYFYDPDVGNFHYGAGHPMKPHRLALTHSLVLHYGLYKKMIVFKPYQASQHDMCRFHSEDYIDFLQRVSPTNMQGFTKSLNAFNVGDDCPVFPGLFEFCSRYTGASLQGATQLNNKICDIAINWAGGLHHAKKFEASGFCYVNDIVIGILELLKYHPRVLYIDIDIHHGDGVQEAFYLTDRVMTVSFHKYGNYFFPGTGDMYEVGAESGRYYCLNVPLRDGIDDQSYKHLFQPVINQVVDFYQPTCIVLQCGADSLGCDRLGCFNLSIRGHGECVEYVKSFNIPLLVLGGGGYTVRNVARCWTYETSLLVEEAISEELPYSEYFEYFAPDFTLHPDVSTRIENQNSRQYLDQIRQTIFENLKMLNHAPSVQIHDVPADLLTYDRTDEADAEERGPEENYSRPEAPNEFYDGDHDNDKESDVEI
UniProt Q09472: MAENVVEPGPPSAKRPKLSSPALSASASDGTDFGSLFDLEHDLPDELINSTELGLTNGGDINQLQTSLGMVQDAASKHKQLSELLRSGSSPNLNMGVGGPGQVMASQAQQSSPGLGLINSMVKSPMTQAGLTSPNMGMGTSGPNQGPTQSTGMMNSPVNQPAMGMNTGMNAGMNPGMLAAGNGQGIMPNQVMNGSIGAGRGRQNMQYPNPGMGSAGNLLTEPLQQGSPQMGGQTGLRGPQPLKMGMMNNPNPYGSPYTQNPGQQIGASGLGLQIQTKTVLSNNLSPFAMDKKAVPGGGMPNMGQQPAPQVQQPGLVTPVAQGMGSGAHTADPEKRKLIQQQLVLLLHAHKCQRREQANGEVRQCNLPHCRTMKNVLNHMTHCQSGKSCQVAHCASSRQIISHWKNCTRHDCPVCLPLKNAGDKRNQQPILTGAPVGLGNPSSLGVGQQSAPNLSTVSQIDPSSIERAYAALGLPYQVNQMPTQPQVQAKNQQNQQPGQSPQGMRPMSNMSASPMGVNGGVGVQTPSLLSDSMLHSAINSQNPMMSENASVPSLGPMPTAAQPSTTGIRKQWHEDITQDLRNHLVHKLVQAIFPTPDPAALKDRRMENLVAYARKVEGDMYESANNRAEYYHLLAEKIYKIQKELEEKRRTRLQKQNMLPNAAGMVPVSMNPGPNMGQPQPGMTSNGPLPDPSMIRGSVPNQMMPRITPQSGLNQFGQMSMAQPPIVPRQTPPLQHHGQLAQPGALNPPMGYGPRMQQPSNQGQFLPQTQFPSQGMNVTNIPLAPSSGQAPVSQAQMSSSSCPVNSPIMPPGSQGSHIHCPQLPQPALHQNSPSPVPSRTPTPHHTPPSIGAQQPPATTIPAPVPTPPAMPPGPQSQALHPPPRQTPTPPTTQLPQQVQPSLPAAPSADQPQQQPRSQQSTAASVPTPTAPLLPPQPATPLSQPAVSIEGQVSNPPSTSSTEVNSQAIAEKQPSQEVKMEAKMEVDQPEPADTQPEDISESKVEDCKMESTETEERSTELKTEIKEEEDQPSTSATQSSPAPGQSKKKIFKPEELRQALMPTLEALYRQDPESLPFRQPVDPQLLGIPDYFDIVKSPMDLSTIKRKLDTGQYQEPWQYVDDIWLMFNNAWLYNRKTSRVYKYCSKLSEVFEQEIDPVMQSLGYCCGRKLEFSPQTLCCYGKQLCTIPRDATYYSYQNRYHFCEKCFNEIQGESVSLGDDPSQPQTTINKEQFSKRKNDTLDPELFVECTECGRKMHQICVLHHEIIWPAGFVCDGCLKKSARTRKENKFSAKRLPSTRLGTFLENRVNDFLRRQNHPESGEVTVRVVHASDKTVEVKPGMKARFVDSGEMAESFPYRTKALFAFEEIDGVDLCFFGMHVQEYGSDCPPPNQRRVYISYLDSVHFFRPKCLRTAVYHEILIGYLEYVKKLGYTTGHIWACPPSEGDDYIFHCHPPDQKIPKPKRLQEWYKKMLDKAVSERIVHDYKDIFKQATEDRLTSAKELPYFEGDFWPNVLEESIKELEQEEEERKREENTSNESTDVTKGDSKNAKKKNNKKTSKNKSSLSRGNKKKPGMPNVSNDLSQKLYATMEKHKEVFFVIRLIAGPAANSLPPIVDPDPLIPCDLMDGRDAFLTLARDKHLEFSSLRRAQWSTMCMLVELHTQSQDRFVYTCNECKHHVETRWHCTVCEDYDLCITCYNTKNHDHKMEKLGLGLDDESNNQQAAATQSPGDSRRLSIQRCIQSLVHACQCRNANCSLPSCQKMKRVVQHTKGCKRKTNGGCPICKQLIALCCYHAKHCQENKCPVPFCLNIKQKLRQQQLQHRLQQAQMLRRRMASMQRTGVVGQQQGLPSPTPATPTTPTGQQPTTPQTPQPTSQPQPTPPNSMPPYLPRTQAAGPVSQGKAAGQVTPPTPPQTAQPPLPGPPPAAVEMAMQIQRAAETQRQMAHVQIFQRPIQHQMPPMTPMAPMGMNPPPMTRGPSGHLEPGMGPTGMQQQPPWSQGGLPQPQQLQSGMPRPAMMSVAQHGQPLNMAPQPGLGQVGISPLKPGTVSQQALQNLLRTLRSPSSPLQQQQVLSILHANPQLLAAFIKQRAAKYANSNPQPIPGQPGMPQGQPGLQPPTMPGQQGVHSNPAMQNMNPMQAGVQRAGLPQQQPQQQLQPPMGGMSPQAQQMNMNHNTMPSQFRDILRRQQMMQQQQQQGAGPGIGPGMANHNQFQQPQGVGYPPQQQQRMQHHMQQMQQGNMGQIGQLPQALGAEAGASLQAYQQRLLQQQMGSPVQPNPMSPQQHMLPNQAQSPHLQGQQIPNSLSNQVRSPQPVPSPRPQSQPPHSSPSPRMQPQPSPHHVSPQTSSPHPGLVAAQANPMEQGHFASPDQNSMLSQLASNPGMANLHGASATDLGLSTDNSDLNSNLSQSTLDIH
UniProt Q92831: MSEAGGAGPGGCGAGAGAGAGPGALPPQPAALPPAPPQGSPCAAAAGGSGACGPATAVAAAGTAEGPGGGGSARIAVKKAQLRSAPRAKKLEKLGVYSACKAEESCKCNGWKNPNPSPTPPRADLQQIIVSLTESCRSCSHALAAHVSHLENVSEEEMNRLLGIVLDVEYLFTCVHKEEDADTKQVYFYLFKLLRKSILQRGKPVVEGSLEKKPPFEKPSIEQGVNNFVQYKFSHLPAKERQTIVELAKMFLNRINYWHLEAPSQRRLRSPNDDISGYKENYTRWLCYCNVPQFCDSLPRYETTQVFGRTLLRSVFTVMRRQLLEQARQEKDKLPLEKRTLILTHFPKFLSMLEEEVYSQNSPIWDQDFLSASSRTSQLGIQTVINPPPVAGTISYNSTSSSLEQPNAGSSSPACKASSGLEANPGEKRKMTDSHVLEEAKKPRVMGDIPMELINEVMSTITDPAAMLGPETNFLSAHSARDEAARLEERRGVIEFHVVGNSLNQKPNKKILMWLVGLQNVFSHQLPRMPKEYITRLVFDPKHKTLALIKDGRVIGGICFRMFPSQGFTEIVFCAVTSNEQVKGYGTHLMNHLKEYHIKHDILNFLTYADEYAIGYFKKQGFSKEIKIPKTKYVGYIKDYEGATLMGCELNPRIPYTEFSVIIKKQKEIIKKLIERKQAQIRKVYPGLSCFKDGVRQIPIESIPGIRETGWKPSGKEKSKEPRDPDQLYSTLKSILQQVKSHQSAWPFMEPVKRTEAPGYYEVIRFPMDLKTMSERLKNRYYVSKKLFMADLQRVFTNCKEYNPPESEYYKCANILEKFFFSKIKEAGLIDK
UniProt Q92993: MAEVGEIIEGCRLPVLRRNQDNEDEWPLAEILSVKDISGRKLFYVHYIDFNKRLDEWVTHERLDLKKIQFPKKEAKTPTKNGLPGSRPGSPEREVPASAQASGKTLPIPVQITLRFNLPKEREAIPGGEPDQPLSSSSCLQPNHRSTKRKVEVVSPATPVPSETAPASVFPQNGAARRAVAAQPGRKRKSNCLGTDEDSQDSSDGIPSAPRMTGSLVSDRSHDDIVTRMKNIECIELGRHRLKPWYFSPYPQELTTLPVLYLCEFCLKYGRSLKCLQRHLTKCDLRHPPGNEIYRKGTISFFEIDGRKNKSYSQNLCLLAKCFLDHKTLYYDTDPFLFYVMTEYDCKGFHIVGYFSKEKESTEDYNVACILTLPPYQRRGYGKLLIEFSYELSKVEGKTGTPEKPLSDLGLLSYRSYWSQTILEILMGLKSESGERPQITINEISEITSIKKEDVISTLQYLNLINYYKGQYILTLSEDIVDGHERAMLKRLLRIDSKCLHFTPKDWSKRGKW
UniProt Q9UNE7: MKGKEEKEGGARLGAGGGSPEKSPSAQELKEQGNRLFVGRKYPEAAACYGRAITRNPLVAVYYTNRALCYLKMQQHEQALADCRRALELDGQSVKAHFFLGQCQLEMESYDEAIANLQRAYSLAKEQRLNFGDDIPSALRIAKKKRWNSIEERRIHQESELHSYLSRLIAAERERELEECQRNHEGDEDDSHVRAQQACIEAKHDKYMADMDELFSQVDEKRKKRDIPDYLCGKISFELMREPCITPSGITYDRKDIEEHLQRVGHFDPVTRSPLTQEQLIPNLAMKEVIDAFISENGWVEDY

Molecular target: T1, Flag-tagged CBX4 (chromobox homolog 4), wild type (human) (UniProt O00257)
T1 sequence: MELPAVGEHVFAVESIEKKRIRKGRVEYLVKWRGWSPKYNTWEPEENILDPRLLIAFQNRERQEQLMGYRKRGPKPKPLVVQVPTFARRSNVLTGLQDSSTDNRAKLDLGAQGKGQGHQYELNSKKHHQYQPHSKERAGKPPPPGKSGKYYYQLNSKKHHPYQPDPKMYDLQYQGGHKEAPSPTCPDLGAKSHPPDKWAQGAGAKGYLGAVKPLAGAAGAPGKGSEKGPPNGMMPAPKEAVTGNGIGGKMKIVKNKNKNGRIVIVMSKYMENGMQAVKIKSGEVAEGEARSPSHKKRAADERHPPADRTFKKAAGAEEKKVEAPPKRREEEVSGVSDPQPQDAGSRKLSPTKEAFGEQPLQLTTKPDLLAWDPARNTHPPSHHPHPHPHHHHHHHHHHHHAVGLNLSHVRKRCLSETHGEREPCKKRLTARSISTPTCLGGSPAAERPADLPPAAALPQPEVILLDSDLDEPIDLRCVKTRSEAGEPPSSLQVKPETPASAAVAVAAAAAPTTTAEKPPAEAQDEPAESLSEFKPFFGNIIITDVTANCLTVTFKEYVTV
Test: co-IP; Supplementary Fig. 10B, C: WT-CBX4, CDM-CBX4 and ΔTM-CBX4 with GCN5 and HDAC3; method, cells and tags not told in the text shown (co-IP is the only binding method of the methods section)

Row | binding | Substance
1 | binds | HA-tagged GCN5 (from UniProt Q92830 1-837)
2 | binds | HDAC3 (from UniProt O15379 1-428) (enzyme)

Molecular target: T1, Flag-tagged CBX4 (chromobox homolog 4), wild type (human)
Test: co-IP; exogenous level: cells (HEK293T where stated) co-transfected with tagged plasmids; lysed in RIPA buffer (150 mM NaCl, 0.5% EDTA, 50 mM Tris, 0.5% NP40); anti-HA-, anti-Myc- or anti-FLAG-agarose, 2 h to overnight at 4 °C; five washes with RIPA; Western blotting; in Fig. 7d with or without pyrvinium pamoate for 24 h (interaction of CBX4 with CHIP increased by the treatment)

Row | Substance | binding
3 | HA-tagged GCN5 (from UniProt Q92830 1-837) | binds
4 | HA-tagged P300 (from UniProt Q09472 1-2414) | binds
5 | HA-tagged PCAF (from UniProt Q92831 1-832) | no binding
6 | HA-tagged TIP60 (from UniProt Q92993 1-513) | no binding

Next, values leading:

Row | binding | Substance
7 | binds | HA-tagged CBP (from UniProt Q92793 1-2442)
8 | binds | Myc-tagged CHIP (carboxyl terminus of HSC70-interacting protein), wild type (from UniProt Q9UNE7 1-303) (enzyme)

Molecular target: T2, endogenous CBX4 of U2OS/MTX300 cells (human (endogenous in U2OS/MTX300)) (UniProt O00257)
T2 sequence: T1 sequence
Test: co-IP; endogenous level: U2OS/MTX300 lysate (RIPA) incubated with anti-CBX4 antibody or anti-IgG antibody 2 h at 4 °C, then protein A/G-agarose 2 h to overnight; five washes with RIPA; Western blotting

Row | Substance | binding
9 | endogenous CHIP of U2OS/MTX300 cells (from UniProt Q9UNE7 1-303) (enzyme) | binds
10 | endogenous P300 of U2OS/MTX300 cells (from UniProt Q09472 1-2414) | binds
11 | endogenous PCAF of U2OS/MTX300 cells (from UniProt Q92831 1-832) | no binding
12 | endogenous TIP60 of U2OS/MTX300 cells (from UniProt Q92993 1-513) | no binding

Results, then the substance that gave them:

Row | binding | Substance
13 | binds | endogenous CBP of U2OS/MTX300 cells (from UniProt Q92793 1-2442)
14 | binds | endogenous GCN5 of U2OS/MTX300 cells (from UniProt Q92830 1-837)
